Results from PubChem BioAssay (NCATS).
Where “and” joins values, the source holds several entries; their conditions need not be identical. Equal values may be shown once. The shares of active, inactive and inconclusive entries below differ from those in the screen. Potencies of inconclusive entries are doubtful fits and often do not repeat. Calls of active or inactive are those of the source. Calls come from the whole dose curve; as a rule, active = well fitted curve in the direction sought with a large enough effect; inconclusive = small, poorly fitted or top-dose-only effect, or another doubt; inactive = no such curve, though single readings can be large; an effect the other way counts as inactive or inconclusive.

Columns and labels:
[1] = Viability qHTS for spleen associated tyrosine kinase inhibitor (SYKi) naive MV4-11 cells (AID 1963823); details: MV4-11 AML viability, CellTiter-Glo luminescence, 72 h; viability (% of control): at 45 µM (top of the series); note: nearly all actives have a fitted effect of over 40% in size
How it was run: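 Viability of MV4-11 AML cells lacking prior SYK inhibitor exposure is scored by CellTiter-Glo luminescence following 72 hr compound incubation at 37 C, 5% CO2, seeded at 500 cells per well.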

[2] = Cellular viability qHTS for adrenocortical cancer (ACC) cell line SW-13 (AID 1963989); details: SW-13 ACC cells viability, CellTiter-Glo, 48 h; activity (max response): stronger effect = lower value; note: nearly all actives have a fitted effect of over 65% in size
How it was run: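 Viability was read as CellTiter-Glo luminescence after 48 h compound treatment (up to 46 uM final) of SW-13 cells grown serum-free; titration curves were fit with a four-parameter logistic model to give IC50 and efficacy.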

[3] = Cellular viability qHTS for adrenocortical cancer (ACC) cell line NCI-H295R (AID 1963990); details: CellTiter-Glo ATP luminescence, 48 h; activity change, negative = viability loss: at 46.1 µM (top of the series); note: nearly all actives have a fitted effect of over 60% in size;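 for activity change, negative = viability loss: 0% = DMSO only wells and -100% = full killing with cytotoxic reference compound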
How it was run: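 CellTiter-Glo ATP luminescence, read 48 h after compound addition, measured viability of NCI-H295R adrenocortical cells grown serum-free with ITS. Final concentrations spanned up to 46 uM. Data normalized to DMSO and doxorubicin, fitted for IC50 and maximal response.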
Potency is the fitted concentration of half-maximal effect; tags give direction and shape of the fitted curve.

SMILES | Potency [1] | Potency [2] | Potency [3] | activity change, negative = viability loss [3]
Cc1cc(Nc2ncnc3ccc(NC4=NC(C)(C)CO4)cc23)ccc1Oc1ccn2ncnc2c1 | inconclusive: 16400 nM [cytotoxic, partial curve] | inconclusive: 17.8 µM [cytotoxic, partial curve] | inconclusive: 22.4 µM [cytotoxic, partial curve, poor fit] | –
CNC(=O)c1cnn(-c2nc(N)c3ncn([C@@H]4O[C@H](CO)[C@@H](O)[C@H]4O)c3n2)c1 | inactive | inconclusive: 23.1 µM [cytotoxic, single point] | – | inconclusive: -33% [cytotoxic]
COc1cc(SC)ccc1C(=O)N1CCC(Cc2ccccc2)CC1 | inconclusive: 16.6 µM [cytotoxic, partial curve] and active: 23.1 µM | inconclusive: 25.1 µM [cytotoxic, single point] | inconclusive: 35.5 µM [cytotoxic, single point] | –
NC(=O)c1ccc([N+](=O)[O-])cc1Cl | inactive | inconclusive: 29.1 µM [cytotoxic, single point] | inconclusive: 18.4 µM [cytotoxic, single point] | –
CN(C)CCN1C(=O)c2cccc3cc(NC(N)=O)cc(c23)C1=O | active: 4170 nM | active: 17.8 µM | inconclusive: 20 µM [cytotoxic, partial curve, poor fit] | –
CCOc1ccc(Cc2nccc3cc(OCC)c(OCC)cc23)cc1OCC | inconclusive: 188 nM [cytotoxic, full curve, poor fit] | inconclusive: 29.1 µM [cytotoxic, single point] | inconclusive: 29.1 µM [cytotoxic, single point] | –
CN[C@H]1CN(c2ccc3c(=O)c(C(=O)O)cn(-c4nccs4)c3n2)C[C@@H]1OC | active: 605 nM | inconclusive: 4.74 µM [cytotoxic, partial curve, poor fit] | inconclusive: 3.76 µM [cytotoxic, partial curve] | –
CCc1ccc2nc(Nc3cc(Cc4ccccc4)nc(NC4CCC(O)CC4)n3)sc2c1 (stereo not given) | active: 8330 nM | inconclusive: 28.2 µM [cytotoxic, single point] | inconclusive: 35.5 µM [cytotoxic, single point] | –
CCCC(CCC)C(=O)Nc1ccn([C@@H]2O[C@H](CO)[C@@H](O)C2(F)F)c(=O)n1 | active: 411 nM | inconclusive: 1.78 µM [cytotoxic, full curve, poor fit] | inactive | –
CCNC(=O)N1CCN(CCCC(c2ccc(F)cc2)c2ccc(F)cc2)CC1 | inconclusive: 11900 nM [cytotoxic, partial curve] | inconclusive: 16.4 µM [cytotoxic, partial curve] | inconclusive: 29.1 µM [cytotoxic, single point] | –
NS(=O)(=O)c1ccc(S(=O)(=O)Nc2cccc3c(Cl)c[nH]c23)cc1 | active: 235 nM | inconclusive: 11.2 µM [cytotoxic, partial curve] | inconclusive: 0.0794 µM [cytotoxic, full curve, poor fit] | –
COc1cc(N2CCC(N)CC2)ccc1Nc1ncc(Cl)c(-c2c[nH]c3ccccc23)n1 | inconclusive: 13 nM [cytotoxic, full curve] | active: 3.16 µM | active: 0.447 µM | –
COc1cc(Nc2cnc(C#N)c(O[C@H](C)CN(C)C)n2)ncc1-c1cnn(C)c1 | active: 934 nM | inconclusive: 35.5 µM [cytotoxic, single point] | inconclusive: 35.5 µM [cytotoxic, single point] | –
CN(CCOc1ccc(-c2ccc3c(c2)OCO3)cc1C(C)(C)C)CC(=O)O | inconclusive: 23500 nM [cytotoxic, partial curve] | inconclusive: 35.5 µM [cytotoxic, single point] | inconclusive: 31.6 µM [cytotoxic, partial curve, poor fit] | –
CCN1CCN(Cc2ccc(Nc3ncc(F)c(-c4cc(F)c5nc(C)n(C(C)C)c5c4)n3)nc2)CC1 | active: 146 nM and active: 148 nM | active: 15.8 µM | active: 4.47 µM | –
